Data taken from patent US20240091372A1, “ANTI-DOPPEL ANTIBODY DRUG CONJUGATES” (SEOUL NATIONAL UNIVERSITY R&DB FOUNDATION, priority 2022, published 2024).

B1: 3H9-KGDEVD-MMAE: MMAE linked to anti-doppel human mAb 3H9 by caspase-cleavable peptide linker Lys-Gly-Asp-Glu-Val-Asp (conjugate)
heavy: EVQLVESGGGLVQPGGSLRLSCAASGFTFSSYAMSWVRQAPGKGLEWVSGISGSGSRTDYADSVKGRFTISRDNSKNTLYLQMNSLRAEDTAVYYCAKVYTYTRGFAFDLWGQGTLVTVSS[letters of human IgG1 constant region left out]
light: DIQMTQSPSSLSASVGDRVTITCRASQSISNYLNWYQQKPGKAPKLLIYAASTLQSGVPSRFSGSGSGTDFTLTISSLQPEDFATYYCQQSYSFPYTFGQGTKVEIKRTVAAPSVFIFPPSDEQLKSGTASVVCLLNNFYPREAKVQWKVDNALQSGNSQESVTEQDSKDSTYSLSSTLTLSKADYEKHKVYACEVTHQGLSSPVTKSFNRGEC
B2: 3H9 mAb: anti-doppel human monoclonal antibody 3H9, heavy chain SEQ ID NO:15, light chain SEQ ID NO:43 (antibody)
heavy: B1 heavy
light: B1 light
B3: 3H9-vc-MMAE: ADC of MMAE, mAb 3H9 and a cathepsin B-cleavable Val-Cit linker (conjugate)
heavy: B1 heavy
light: B1 light
modifications: non-natural residues
notes: ADC of MMAE, mAb 3H9 and a cathepsin B-cleavable Val-Cit linker

Experiments:
HCT116 xenograft tumor = experiment: In vivo efficacy in HCT116 xenograft tumor model; design: species or system balb-c/nu mice; details: for tumor growth suppression, ADCs with different linkers: HCT116 xenograft, FIG. 6
Procedure: To assess the anti-tumor efficacy of anti-doppel ADCs, an HCT116 xenograft tumor model was used. HCT116 cells (1×10^^7 cells/mouse) were inoculated into the left flank of balb-c/nu mice. When the average tumor volume reach 70-100 mm^3, ADC was administered intravenously every 4 days for a total of 4 times. Tumor volume was measured every 4 days until the end of the experiments.

HCT116 cells = experiment: Cytotoxicity assay on doppel-expressing cell line HCT116; format: cell-based; details: HCT116, 72 hours, FIG. 1
Procedure: The ability of anti-doppel ADCs as described herein to deliver a potent cytotoxic drug and eliminate doppel-expressing cells was assessed.
A cell line expressing doppel, HCT116, was selected and cultured with increasing concentrations of ADC. After 72 hours, viability of each culture was assessed. IC50 values were calculated by logistic non-linear regression and reported as nM. […] (FIG. 1)

Molecule | tumor growth suppression, ADCs with different linkers (HCT116 xenograft tumor) | tumor growth suppression (KGDEVD-MMAE ADCs) (HCT116 xenograft tumor; same tumor model, FIG. 7) | growth inhibition of doppel expressing cell line (HCT116) (HCT116 cells) | dose-dependency of anti-tumor effect (HCT116 xenograft tumor; same tumor model and procedure, FIG. 5)
B1 | effectively suppressed tumor growth | effectively suppressed tumor growth | inhibited growth | 
B2 |  |  | did not | 
B3 | effectively suppressed tumor growth |  | inhibited growth | dose-dependent effect
